Here are results for 44 compounds from publication PMC4336329 (PLoS ONE, 2015).

The campaign covered roughly 310,000 compounds. About 2,200 (0.71%) showed an effect of 50% or more. The effect is printed as a negative number. The list shows a part of the results.

human ether-à-go-go-related gene (hERG) potassium channel, sequence (Q12809 whole entry, looked up): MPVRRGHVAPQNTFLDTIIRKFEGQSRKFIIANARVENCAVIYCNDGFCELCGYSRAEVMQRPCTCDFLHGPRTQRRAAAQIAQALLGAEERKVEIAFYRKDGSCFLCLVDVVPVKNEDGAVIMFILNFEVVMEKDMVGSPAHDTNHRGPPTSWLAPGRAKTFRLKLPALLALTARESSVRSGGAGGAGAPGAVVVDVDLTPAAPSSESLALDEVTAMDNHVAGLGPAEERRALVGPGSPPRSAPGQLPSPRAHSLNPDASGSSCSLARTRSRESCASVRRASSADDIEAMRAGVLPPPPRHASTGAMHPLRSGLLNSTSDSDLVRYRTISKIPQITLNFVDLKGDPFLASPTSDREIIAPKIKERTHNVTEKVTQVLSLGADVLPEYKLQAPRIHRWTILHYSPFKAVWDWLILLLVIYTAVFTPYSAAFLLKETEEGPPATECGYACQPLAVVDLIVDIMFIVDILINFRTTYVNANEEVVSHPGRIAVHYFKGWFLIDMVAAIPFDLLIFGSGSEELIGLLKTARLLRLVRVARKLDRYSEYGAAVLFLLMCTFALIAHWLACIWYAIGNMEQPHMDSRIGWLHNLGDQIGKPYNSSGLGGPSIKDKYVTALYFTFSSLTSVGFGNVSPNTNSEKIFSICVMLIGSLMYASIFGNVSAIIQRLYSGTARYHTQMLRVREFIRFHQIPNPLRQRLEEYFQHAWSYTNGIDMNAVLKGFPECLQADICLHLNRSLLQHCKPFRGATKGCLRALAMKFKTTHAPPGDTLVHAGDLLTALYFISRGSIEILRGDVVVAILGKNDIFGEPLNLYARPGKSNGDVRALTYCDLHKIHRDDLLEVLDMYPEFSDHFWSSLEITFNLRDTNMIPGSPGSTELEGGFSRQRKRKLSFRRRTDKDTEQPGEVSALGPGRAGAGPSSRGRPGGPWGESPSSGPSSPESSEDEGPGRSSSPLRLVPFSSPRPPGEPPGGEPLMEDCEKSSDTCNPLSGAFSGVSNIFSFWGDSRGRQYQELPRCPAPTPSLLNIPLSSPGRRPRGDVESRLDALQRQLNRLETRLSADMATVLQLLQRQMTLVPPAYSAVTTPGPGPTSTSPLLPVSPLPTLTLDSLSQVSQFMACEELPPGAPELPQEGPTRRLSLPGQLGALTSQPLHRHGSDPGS

This assay concerns the target human ether-à-go-go-related gene (hERG) potassium channel (human, UniProt Q12809). The experiment in a line: primary screen, population patch clamp on CHO cells stably expressing hERG.
For the compound `CCCCC(=O)Oc1c(S(=O)(=O)c2ccccc2)c(C)nn1C(C)(C)C`, the “hERG current change (%, negative = inhibition) at 1uM” value worked out at 12.9%.
Consider `CN(C(=O)COC(=O)CNC(=O)c1ccc2ccccc2c1)c1c(N)n(Cc2ccccc2)c(=O)[nH]c1=O`, for which the “hERG current change (%, negative = inhibition) at 1uM” value was -3.15%.
On to `N#C/C=C(/c1ccc(F)cc1)N1CCOCC1`, for which the “hERG current change (%, negative = inhibition) at 1uM” value was found to be 5.24%.
Consider `O=C(Cc1ccccc1F)NC1CCSc2ccccc21` (centres unmarked), for which the “hERG current change (%, negative = inhibition) at 1uM” value worked out at 14.1%.
In the case of `COc1cccc2cc(-c3nnc(-c4ccccc4)o3)c(=O)oc12`, the “hERG current change (%, negative = inhibition) at 1uM” value worked out at 5.07%.
Under `O=C(Nc1cccc(S(=O)(=O)N2CCCCC2)c1)C1CCC1` stands 14.7%; under `COc1ccccc1CN1C(=O)CCC1(C)C(=O)NCc1cccnc1` (centres unmarked), 5.57%.
Under `COc1ccc(/C=N/NC(=O)c2cccc(Br)c2)cc1Cn1cc(Cl)cn1` stands 13.4%.
On to `CCN=C1SCC(=O)N1c1ccc(OC)cc1`, for which the “hERG current change (%, negative = inhibition) at 1uM” value stood at 10.9%.
On to `COc1cccc(OCc2nc(-c3ccc(Br)o3)no2)c1`, for which the “hERG current change (%, negative = inhibition) at 1uM” value is 5.48%.
In the case of `C[C@H]1O[C@@H](O[C@H]2[C@@H](O)C[C@H](O[C@H]3[C@@H](O)C[C@H](O[C@H]4CC[C@@]5(C)[C@H](CC[C@@H]6[C@@H]5C[C@@H](O)[C@]5(C)[C@@H](C7=CC(=O)OC7)CC[C@]65O)C4)O[C@@H]3C)O[C@@H]2C)C[C@H](O)[C@@H]1O`, the “hERG current change (%, negative = inhibition) at 1uM” value worked out at 12.8%.
For `Cc1c(Cl)cccc1NC(=O)CSc1ccc(-c2cccnc2)nn1`, the “hERG current change (%, negative = inhibition) at 1uM” value is given as 13.4%.
Regarding `CCOC(=O)c1sc2nc(-c3ccco3)c3c(c2c1N)CC(C)(C)OC3`, the “hERG current change (%, negative = inhibition) at 1uM” value worked out at 10.9%.
Under `O=C(CN(Cc1ccccc1)S(=O)(=O)c1ccccc1)N/N=C/c1ccc2c(c1)OCO2` stands 10.8%; under `O=C(CN(C(=O)c1ccccc1)N1C(=O)CCC1=O)c1cccs1`, 9.66%; under `COc1cc(NC(=O)Cc2cccc3ccccc23)c(C(=O)O)cc1OC`, 15.1%.
Under `NC(=O)C1CCN(C(=O)Cc2ccc(-c3ccccc3)cc2)CC1` stands 13.1%; under `Cc1ccc2nc(Nc3ccc4[nH]c(=O)[nH]c4c3)c(-n3nc(C)cc3C)nc2c1`, 12.3%.
Regarding `CN(C(=O)c1ccccc1C(=O)OCC(=O)c1ccccc1)c1ccccc1`, the “hERG current change (%, negative = inhibition) at 1uM” value worked out at 7.4%.
In the case of `NS(=O)(=O)c1ccc(Nc2c([N+](=O)[O-])cncc2[N+](=O)[O-])cc1`, the “hERG current change (%, negative = inhibition) at 1uM” value is 11.7%.
On to `Cc1ccc(SCCNC(=O)c2ccccc2C)cc1`, for which the “hERG current change (%, negative = inhibition) at 1uM” value came out at 13.4%.
For `O=C(c1cnn(C(=O)c2cccc(S(=O)(=O)N3CCOCC3)c2)c1)c1ccccc1O`, the “hERG current change (%, negative = inhibition) at 1uM” value stood at 2.5%.
As to `COc1cccc(-n2c(SCC(=O)NCc3ccco3)nnc2-c2c[nH]c3ccccc23)c1`, the “hERG current change (%, negative = inhibition) at 1uM” value was -12.8%.
Under `Cc1cc(C=C2C(=O)c3ccccc3C2=O)c(C)n1-c1cccc(C(=O)O)c1` stands 10.8%; under `CC1(C)CC(=O)C(C(=S)Nc2ccc(F)cc2)=C(NCCN2CCOCC2)C1`, 9.49%.
As to `O=S(=O)(c1ccc(-n2cnnn2)cc1)N1CCN(c2ccccc2F)CC1`, the “hERG current change (%, negative = inhibition) at 1uM” value amounted to 13.8%.
Consider `CCOC(=O)N1CCN(S(=O)(=O)N2CCCC(C(=O)NCCc3ccccc3)C2)CC1` (centres unmarked), for which the “hERG current change (%, negative = inhibition) at 1uM” value is on record as 6.31%.
Under `O=S(=O)(c1ccc(Cl)cc1)c1ccc(Cl)cc1` stands 11.1%; under `CSc1ccccc1-c1nnc(-c2ccc(Cl)c(Cl)c2)o1`, 11.7%; under `Cc1cccc(N2CCN(c3ccc4cc(S(=O)(=O)N5CCCCC5)ccc4n3)CC2C)c1` (centres unmarked), 8.5%.
Under `N#CC1=C(N)SC(C(=O)c2ccccc2)C1c1cccs1` (centres unmarked) stands 12.7%; under `CC(NC(=O)C(=O)N1CCCCC1)C(c1cccs1)N1CCN(c2ccccc2F)CC1` (centres unmarked), 3.25%.
Take `O=C(COc1ccc(F)cc1)N/N=C/c1cccc2cccnc12`: the “hERG current change (%, negative = inhibition) at 1uM” value is 12.7%.
On to `COC(=O)N=Nc1c(O)n(Cc2ccccc2)c2ccccc12`, for which the “hERG current change (%, negative = inhibition) at 1uM” value is -1.9%.
Take `COc1ccc(CCNC(=O)c2cc(C(=O)c3cc(C)ccc3O)cn(CCc3ccc(OC)cc3)c2=O)cc1`: the “hERG current change (%, negative = inhibition) at 1uM” value was found to be 6.89%.
On to `Fc1ccc(CNCc2cccc(Br)c2)cc1`, for which the “hERG current change (%, negative = inhibition) at 1uM” value was determined as 28%.
Turning to `COc1ccc(-c2nc3n(c(=O)c2C#N)CCS3)c(OC)c1`, the “hERG current change (%, negative = inhibition) at 1uM” value is 12.2%.
On to `COC(=O)CSc1[nH]c(=O)cc(C)c1C#N`, for which the “hERG current change (%, negative = inhibition) at 1uM” value worked out at 18.6%.
For `O=C(O)CCC(=O)NNC(=O)c1ccc(Br)cc1`, the “hERG current change (%, negative = inhibition) at 1uM” value was found to be 5.87%.
`O=C(OCC(=O)N1CCc2ccccc21)c1cncc(Br)c1`: the “hERG current change (%, negative = inhibition) at 1uM” value was determined as 9.86%.
With `CN(C)c1oc(COc2ccccc2F)nc1C#N`, the “hERG current change (%, negative = inhibition) at 1uM” value was 8.75%.
Regarding `CN(CCO)Cc1csc2ccc(Br)cc12.Cl`, the “hERG current change (%, negative = inhibition) at 1uM” value stood at 5.84%.
Under `c1ccc(-c2ncc3c(ccc4ccccc43)n2)cc1` stands 5.48%; under `O=C(OCc1nnc(-c2ccccc2)o1)c1ccc(S(=O)(=O)NCc2ccco2)cc1`, -1.4%.
